According to the supplement of paper PMC10126150:
Sequences with one replicate were seen in a single cluster, so their values are uncertain.

System: ATP
Assay: switch fluorescence ratio, 500 uM ATP over buffer (Cy3 cluster intensity, sum of 5 cycles each) (fold (ratio)); higher = stronger signal-on switching upon ATP binding; sequences stand for … in TCGTCGGCAGCGTCAGATGTGTATAAGAGACAGTTTTTTTTTTTTTTTTTTTTTTTTT…TC
Details: aptamer strand: ATP DNA aptamer (quencher-CACCTGGGGGAGTATTGCGGAGGAAGG + anchor), 100 nM annealed; ATP concentration: 500 uM; one replicate
Procedure, shortened: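 Between each of five buffer/ATP cycles, the flow-cell was stripped with NaOH and re-annealed. Each cycle imaged Cy3-labelled switching-strand clusters, annealed to 100 nM quencher-labelled ATP aptamer on a modified Illumina MiSeq flow-cell, first in selection buffer and then after 15 min with 500 uM ATP at 22 °C. The fluorescence ratio is summed target-cycle over summed buffer-cycle Cy3 intensity per cluster, averaged per switch-domain sequence, with clusters outside 100-1000 RFU excluded.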
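Note: ATP exposure 15 min at 22 °C before imaging.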

| Sequence | switch fluorescence ratio |
| --- | --- |
| AAGTTGCGAC | 0.982 |
| AAGTTGTCCC | 1.01 |
| AAGTTTAAAG | 0.977 |
| AATAAAAAGC | 0.972 |
| AATAAAAGGT | 0.986 |
| AATAACGG | 1.01 |
| AATAACTGCG | 1 |
| AATAAGCCGT | 1.06 |
| AATAAGCCTA | 1.03 |
| AATAAGGAGC | 1 |
| AATAAGTAAC | 1.15 |
| AATAATGCCC | 1.02 |
| AATAATGCCT | 1.09 |
| AATACAACAC | 1.16 |
| AATACAATTG | 1.05 |
| AATACATGG | 0.921 |
| AATACCCAAA | 1.04 |
| AATACCCGCA | 1.18 |
| AATACGGGCA | 1.06 |
| AATACGGGTC | 1.1 |
| AATACGTACG | 1.29 |
| AATACGTCGC | 1.08 |
| AATAGAGTCT | 1.04 |
| AATAGATTCT | 0.952 |
| AATAGCAACA | 1.05 |
| AATAGCCATC | 1.03 |

| Sequence | switch fluorescence ratio |
| --- | --- |
| AATAGGAGGA | 1.02 |
| AATAGGCATT | 0.978 |
| AATAGGCCAA | 1 |
| AATAGTCGGG | 0.989 |
| AATAGTCTTG | 0.98 |
| AATATAGGAG | 0.962 |
| AATATATAAA | 1 |
| AATATCCCCA | 1.02 |
| AATATCCCTG | 1.03 |
| AATATCTCTC | 1.04 |
| AATCAACTGG | 0.953 |
| AATCAAGGTA | 0.989 |
| AATCACGTAC | 1.75 |
| AATCAGGGG | 1.06 |
| AATCCAAGGC | 1.07 |
| AATCCAATGG | 1.01 |
| AATCCACCAG | 2.53 |
| AATCCAGGGT | 1.08 |
| AATCCCGGGA | 1.02 |
| AATCCCGGTG | 1.01 |
| AATCCGGACG | 1.01 |
| AATCCGGGAT | 1.01 |
| AATCCGTCTA | 1.13 |
| AATCCGTTGT | 1.02 |
| AATCGAATTA | 0.989 |
| AATCGATA | 1 |

| Sequence | switch fluorescence ratio |
| --- | --- |
| AATCGCCCGC | 1.05 |
| AATCGCTTCA | 1.05 |
| AATCGGATTT | 1.04 |
| AATCGTCTCG | 1 |
| AATCGTCTGA | 1.01 |
| AATCGTTCGA | 1.01 |
| AATCGTTTCT | 1.04 |
| AATCTAGGGG | 0.999 |
| AATCTATTA | 0.987 |
| AATCTGCTCT | 1.02 |
| AATCTGGTG | 1.1 |
| AATCTGTGGA | 1.01 |
| AATCTGTTTT | 0.995 |
| AATCTTCTAC | 1.02 |
| AATGAAAGGA | 0.989 |
| AATGAACAAG | 1.04 |
| AATGAATGGT | 1.01 |
| AATGAATTTT | 0.952 |
| AATGACACGA | 1.07 |
| AATGACGCTT | 1.06 |
| AATGACGTGA | 0.995 |
| AATGAGAAT | 1.02 |
| AATGAGGATT | 1 |
| AATGAGGGG | 0.977 |
| AATGATATCC | 0.984 |
| AATGATGGTT | 1.02 |

| Sequence | switch fluorescence ratio |
| --- | --- |
| AATGATGTGT | 0.973 |
| AATGCAGGCG | 1.08 |
| AATGCATCTT | 1.01 |
| AATGCCGTAC | 1.03 |
| AATGCGTAAT | 1.12 |
| AATGCGTCGT | 0.919 |
| AATGCGTGGG | 0.987 |
| AATGCTTCTA | 0.978 |
| AATGCTTGCG | 1.02 |
| AATGGGGCAC | 0.955 |
| AATGGGGTAG | 1.02 |
| AATGGTATTG | 0.978 |
| AATGGTTACC | 0.992 |
| AATGTACCGT | 1.08 |
| AATGTATTAG | 0.974 |
| AATGTCAAGG | 1.02 |
| AATGTCACTC | 1.07 |
| AATGTCGGGG | 0.932 |
| AATGTCGTCC | 0.992 |
| AATGTGCCAG | 1.01 |
| AATGTGCGTG | 1.02 |
| AATGTGGAAT | 1.04 |
| AATGTGTT | 0.97 |
| AATGTTGTGT | 0.986 |
| AATGTTTTAA | 0.992 |
| AATTAAAAGC | 1.02 |

| Sequence | switch fluorescence ratio |
| --- | --- |
| AATTACACTA | 1.03 |
| AATTAGAAAT | 1.02 |
| AATTAGCCAG | 0.93 |
| AATTAGCGGC | 1.03 |
| AATTCAAATC | 1.02 |
| AATTCAGTCT | 0.994 |
| AATTCATAT | 0.964 |
| AATTCCTCGC | 2.94 |
| AATTCGCACA | 1.58 |
| AATTCGGAAA | 0.992 |
| AATTCGGTAT | 1.06 |
| AATTCGTAGG | 0.956 |
| AATTCTACTA | 1.03 |
| AATTCTGGCG | 0.965 |
| AATTCTGTGA | 0.987 |
| AATTCTGTGT | 0.953 |
| AATTCTTCAT | 0.95 |
| AATTGAAAGA | 0.977 |
| AATTGCTCCT | 1.07 |
| AATTGGAGG | 0.973 |
| AATTGGGAGG | 1.06 |
| AATTGTCATC | 0.982 |
| AATTGTGGTA | 0.954 |
| AATTGTGGTC | 0.987 |
| AATTGTTCGA | 0.997 |
| AATTTAAAGG | 0.995 |

| Sequence | switch fluorescence ratio |
| --- | --- |
| AATTTAGAGG | 1.04 |
| AATTTATTAT | 0.978 |
| AATTTCAGCG | 0.968 |
| AATTTGAATG | 0.995 |
| AATTTGCCTG | 0.973 |
| AATTTGTGCC | 1.07 |
| AATTTTACAA | 1.05 |
| AATTTTAGG | 0.956 |
| AATTTTAGGG | 0.926 |
| AATTTTCCGA | 1.1 |
| AATTTTCGAG | 1.02 |
| AATTTTTTGC | 1.03 |
| ACAAAAACGA | 1.38 |
| ACAAACATCG | 1 |
| ACAAACCCC | 1.24 |
| ACAAAGGCGC | 0.987 |
| ACAAAGGGGT | 0.964 |
| ACAAATAAG | 0.942 |
| ACAAATCGCT | 1.01 |
| ACAACCAGAC | 1.57 |
| ACAACCATTA | 1.01 |
| ACAACCCCGG | 1.35 |
| ACAACGAAG | 1.02 |
| ACAACGCGTC | 1.1 |
| ACAACGGTAG | 1.03 |
| ACAACTTCGG | 1.05 |

| Sequence | switch fluorescence ratio |
| --- | --- |
| ACAAGAAATG | 0.95 |
| ACAAGGCACT | 1.03 |
| ACAAGTAGCG | 0.955 |
| ACAAGTGGGG | 1.04 |
| ACAATAACGC | 1.09 |
| ACAATAATGT | 0.946 |
| ACAATCCACA | 1.01 |
| ACAATGATAA | 1 |
| ACAATGTCCC | 1.03 |
| ACAATTAATC | 1.04 |
| ACAATTTTAA | 0.981 |
| ACACAACAGG | 1.35 |
| ACACACCGAT | 1.2 |
| ACACACGGGC | 1.49 |
| ACACACTTAT | 1.2 |
| ACACACTTGT | 1.2 |
| ACACAG | 1.03 |
| ACACAGGAGC | 1.08 |
| ACACATCGTT | 1.01 |
| ACACCAAGCG | 1.07 |
| ACACCAAGTT | 1.04 |
| ACACCCTTT | 1.16 |
| ACACCGAGAC | 1.56 |
| ACACCGGGTG | 1.32 |
| ACACGATAGG | 1.07 |
| ACACGCACCT | 1.64 |

| Sequence | switch fluorescence ratio |
| --- | --- |
| ACACGCCTAG | 0.995 |
| ACACGCTTAA | 1.12 |
| ACACGGAATT | 1.07 |
| ACACTCGGTC | 1.05 |
| ACACTGATTC | 1.05 |
| ACACTGTCTA | 1.01 |
| ACACTTTTGC | 1.1 |
| ACAGACCGGG | 1.07 |
| ACAGACGGTA | 1.22 |
| ACAGACTTAA | 1.04 |
| ACAGAGAATA | 0.999 |
| ACAGAGCGCT | 1.05 |
| ACAGATTCG | 0.985 |
| ACAGCTCGTA | 1.01 |
| ACAGCTGCAT | 0.946 |
| ACAGGCCGCA | 1.03 |
| ACAGGGATAG | 0.999 |
| ACAGGGGTCG | 0.96 |
| ACAGGTCTGC | 1.06 |
